Assay results published in the supplement of paper PMC10037445.
“And” between values parts separate entries of the source, which are not always exact repeats. Equal values may be shown once. The full ranking holds about 2,900 compounds; the median of “NF-kB SEAP reporter activity, fold change vs agonist alone” is about 0.99, and the highest 2% start at about 2.6. The list shows a part of the results.

Key:
RAW-Dual [1] = assay: NF-kB SEAP reporter activity, fold change vs agonist alone; cytotoxicity flag (confluency mask): not cytotoxic; higher = enhanced NF-kB activity
Method in brief: (§1)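 Cytotoxic wells were those whose IncuCyte confluency was below 70% of agonist controls in both mask sets. The cells were RAW-Dual macrophages at 50,000 cells/well in DMEM on 384-well plates, dosed with 50 nL of library stock by pin tool, stimulated with a PRR agonist 1 h later, and kept at 37 °C, 5% CO2 for 20 hours. IRF and NF-κB reporter activity, as fold change over agonist-alone wells, came from supernatant read by QuantiLuc luminescence and QuantiBlue absorbance, respectively.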

RAW-Dual [2] = assay: NF-kB SEAP reporter activity, fold change vs agonist alone; higher = enhanced NF-kB activity; conditions: library stock concentration (final ~1000-fold dilution): 10 mM
Method in brief: as §1

RAW-Dual [3] = assay: NF-kB SEAP reporter activity, fold change vs agonist alone; cytotoxicity flag (confluency mask): cytotoxic (confluency <70% of control); higher = enhanced NF-kB activity
Method in brief: as §1

[4] = agonist: ODN 1826 (TLR9) 0.5 ug/mL
[5] = agonist: Pam2CSK4 (TLR2/6) 0.1 ug/mL
[6] = agonist: Pam3CSK4 (TLR2/1) 0.1 ug/mL
[7] = cytotoxicity flag (confluency mask): not cytotoxic, agonist: Imiquimod (TLR7) […]
[8] = cytotoxicity flag (confluency mask): not cytotoxic, agonist: MPLA (TLR4) […]

## CS(=O)(=O)O.N#CC1(c2ccc(NC(=O)c3cccnc3NCc3ccncc3)cc2)CCCC1 (library stock concentration (final ~1000-fold dilution): 10 mM)
RAW-Dual [1]; agonist: LPS (TLR4) 0.1 ug/mL
  NF-kB SEAP reporter activity: 0.801
RAW-Dual [1]; [4]
  NF-kB SEAP reporter activity: 0.615
RAW-Dual [1]; [5]
  NF-kB SEAP reporter activity: 0.453
RAW-Dual [1]; [6]
  NF-kB SEAP reporter activity: 0.464

## CS(=O)(=O)O.N#CC1(c2ccc(NC(=O)c3cccnc3NCc3ccncc3)cc2)CCCC1
RAW-Dual [2]; [7]
  NF-kB SEAP reporter activity: 1.14
RAW-Dual [2]; [8]
  NF-kB SEAP reporter activity: 0.751

## CCC(C)C(=O)OC1CCC=C2C=CC(C)C(CCC3CC(O)CC(=O)O3)C21 (stereo unspecified)
RAW-Dual [2]; [7]
  NF-kB SEAP reporter activity: 2.3
RAW-Dual [2]; [8]
  NF-kB SEAP reporter activity: 1.97

## CCC(C)C(=O)OC1CCC=C2C=CC(C)C(CCC3CC(O)CC(=O)O3)C21 (stereo unspecified) (library stock concentration (final ~1000-fold dilution): 10 mM)
RAW-Dual [1]; agonist: LPS (TLR4) 0.1 ug/mL
  NF-kB SEAP reporter activity: 3.69
RAW-Dual [1]; [4]
  NF-kB SEAP reporter activity: 2.68
RAW-Dual [1]; [5]
  NF-kB SEAP reporter activity: 1.45
RAW-Dual [1]; [6]
  NF-kB SEAP reporter activity: 2.12

## CC12CC(O)C3CC1(O[C@@H]1O[C@H](CO)[C@@H](O)[C@H](O)[C@H]1O)C3(COC(=O)c1ccccc1)C(=O)O2 (stereo partly specified) (library stock concentration (final ~1000-fold dilution): 10 mM)
RAW-Dual [1]; agonist: LPS (TLR4) 0.1 ug/mL
  NF-kB SEAP reporter activity: 1.24
RAW-Dual [1]; [4]
  NF-kB SEAP reporter activity: 1.12
RAW-Dual [1]; [5]
  NF-kB SEAP reporter activity: 1.1
RAW-Dual [1]; [6]
  NF-kB SEAP reporter activity: 1.06

## CC12CC(O)C3CC1(O[C@@H]1O[C@H](CO)[C@@H](O)[C@H](O)[C@H]1O)C3(COC(=O)c1ccccc1)C(=O)O2 (stereo partly specified)
RAW-Dual [2]; [7]
  NF-kB SEAP reporter activity: 1.03
RAW-Dual [2]; [8]
  NF-kB SEAP reporter activity: 1.03

## CCN(CC)C(=O)Nc1ccc(OCC(O)CNC(C)(C)C)c(C(C)=O)c1.Cl (stereo unspecified)
RAW-Dual [2]; [7]
  NF-kB SEAP reporter activity: 2.4
RAW-Dual [2]; [8]
  NF-kB SEAP reporter activity: 2.24

## CCN(CC)C(=O)Nc1ccc(OCC(O)CNC(C)(C)C)c(C(C)=O)c1.Cl (stereo unspecified) (library stock concentration (final ~1000-fold dilution): 10 mM)
RAW-Dual [1]; agonist: LPS (TLR4) 0.1 ug/mL
  NF-kB SEAP reporter activity: 3.5
RAW-Dual [1]; [4]
  NF-kB SEAP reporter activity: 2.46
RAW-Dual [1]; [5]
  NF-kB SEAP reporter activity: 1.6
RAW-Dual [1]; [6]
  NF-kB SEAP reporter activity: 3.15

## COc1cc2ncnc(Nc3ccc(Oc4ccccc4)cc3C)c2cc1OC.Cl (library stock concentration (final ~1000-fold dilution): 10 mM)
RAW-Dual [1]; agonist: LPS (TLR4) 0.1 ug/mL
  NF-kB SEAP reporter activity: 1.05
RAW-Dual [1]; [4]
  NF-kB SEAP reporter activity: 0.422
RAW-Dual [1]; [5]
  NF-kB SEAP reporter activity: 0.297
RAW-Dual [1]; [6]
  NF-kB SEAP reporter activity: 0.42

## COc1cc2ncnc(Nc3ccc(Oc4ccccc4)cc3C)c2cc1OC.Cl
RAW-Dual [2]; [7]
  NF-kB SEAP reporter activity: 1.37
RAW-Dual [2]; [8]
  NF-kB SEAP reporter activity: 0.792

## Cc1cccc(-c2n[nH]cc2-c2ccc3ncccc3n2)n1 (library stock concentration (final ~1000-fold dilution): 10 mM)
RAW-Dual [1]; agonist: LPS (TLR4) 0.1 ug/mL
  NF-kB SEAP reporter activity: 2.27
RAW-Dual [1]; [4]
  NF-kB SEAP reporter activity: 1.58
RAW-Dual [1]; [5]
  NF-kB SEAP reporter activity: 1.1
RAW-Dual [1]; [6]
  NF-kB SEAP reporter activity: 1.61

## Cc1cccc(-c2n[nH]cc2-c2ccc3ncccc3n2)n1
RAW-Dual [2]; [7]
  NF-kB SEAP reporter activity: 1.16
RAW-Dual [2]; [8]
  NF-kB SEAP reporter activity: 1.79

## Cc1ccc(-c2c(-c3nn(C)c4ncnc(N5CCC(N6CCCCC6)C5)c34)cnn2C)cc1 (stereo unspecified) (library stock concentration (final ~1000-fold dilution): 10 mM)
RAW-Dual [1]; agonist: LPS (TLR4) 0.1 ug/mL
  NF-kB SEAP reporter activity: 1.57
RAW-Dual [1]; [4]
  NF-kB SEAP reporter activity: 0.856
RAW-Dual [1]; [5]
  NF-kB SEAP reporter activity: 1.21
RAW-Dual [1]; [6]
  NF-kB SEAP reporter activity: 1.16

## Cc1ccc(-c2c(-c3nn(C)c4ncnc(N5CCC(N6CCCCC6)C5)c34)cnn2C)cc1 (stereo unspecified)
RAW-Dual [2]; [7]
  NF-kB SEAP reporter activity: 0.947
RAW-Dual [2]; [8]
  NF-kB SEAP reporter activity: 1.09

## CN1CCC(c2c(O)cc(O)c3c(=O)cc(-c4ccccc4Cl)oc23)C1CO.Cl (stereo unspecified)
RAW-Dual [2]; cytotoxicity flag (confluency mask): cytotoxic (confluency <70% of control), agonist: Imiquimod (TLR7) […]
  NF-kB SEAP reporter activity: 0.313
RAW-Dual [2]; cytotoxicity flag (confluency mask): cytotoxic (confluency <70% of control), agonist: MPLA (TLR4) […]
  NF-kB SEAP reporter activity: 0.654

## CN1CCC(c2c(O)cc(O)c3c(=O)cc(-c4ccccc4Cl)oc23)C1CO.Cl (stereo unspecified) (library stock concentration (final ~1000-fold dilution): 10 mM)
RAW-Dual [3]; agonist: LPS (TLR4) 0.1 ug/mL
  NF-kB SEAP reporter activity: 0.291
RAW-Dual [3]; [4]
  NF-kB SEAP reporter activity: 0.258
RAW-Dual [3]; [5]
  NF-kB SEAP reporter activity: 0.0831
RAW-Dual [3]; [6]
  NF-kB SEAP reporter activity: 0.15

## Cc1cc(-c2ccnc3cc(O)ccc23)ccc1O (library stock concentration (final ~1000-fold dilution): .1 mM)
RAW-Dual [1]; agonist: LPS (TLR4) 0.1 ug/mL
  NF-kB SEAP reporter activity: 3.3

## COc1cc2c(cc1OC)-c1cc3ccc4c(c3c[n+]1CC2)OCO4 (library stock concentration (final ~1000-fold dilution): 10 mM)
RAW-Dual [1]; agonist: LPS (TLR4) 0.1 ug/mL
  NF-kB SEAP reporter activity: 1.04 and 1.03
RAW-Dual [1]; [4]
  NF-kB SEAP reporter activity: 1.06 and 0.845
RAW-Dual [1]; [5]
  NF-kB SEAP reporter activity: 1.13 and 1.06
RAW-Dual [1]; [6]
  NF-kB SEAP reporter activity: 0.986 and 1.09

## CCc1cccc2c3c([nH]c12)C(CC)(CC(=O)O)OCC3 (stereo unspecified)
RAW-Dual [2]; [7]
  NF-kB SEAP reporter activity: 0.875
RAW-Dual [2]; [8]
  NF-kB SEAP reporter activity: 1.13

## CCc1cccc2c3c([nH]c12)C(CC)(CC(=O)O)OCC3 (stereo unspecified) (library stock concentration (final ~1000-fold dilution): 10 mM)
RAW-Dual [1]; agonist: LPS (TLR4) 0.1 ug/mL
  NF-kB SEAP reporter activity: 1.03
RAW-Dual [1]; [4]
  NF-kB SEAP reporter activity: 0.896
RAW-Dual [1]; [5]
  NF-kB SEAP reporter activity: 1.02
RAW-Dual [1]; [6]
  NF-kB SEAP reporter activity: 1.06

## O=C1CC(c2c[nH]c3ccc(F)cc23)C(=O)N1 (stereo unspecified)
RAW-Dual [2]; [7]
  NF-kB SEAP reporter activity: 0.946
RAW-Dual [2]; [8]
  NF-kB SEAP reporter activity: 1.03

## O=C1CC(c2c[nH]c3ccc(F)cc23)C(=O)N1 (stereo unspecified) (library stock concentration (final ~1000-fold dilution): 10 mM)
RAW-Dual [1]; agonist: LPS (TLR4) 0.1 ug/mL
  NF-kB SEAP reporter activity: 1.08
RAW-Dual [1]; [4]
  NF-kB SEAP reporter activity: 0.919
RAW-Dual [1]; [5]
  NF-kB SEAP reporter activity: 1.09
RAW-Dual [1]; [6]
  NF-kB SEAP reporter activity: 1.17

## CC(C)=CC(C)C[C@](C)(O[C@@H]1O[C@H](CO)[C@@H](O)[C@H](O)[C@H]1O)[C@H]1CC[C@]2(C)C3CCC4C(C)(C)C(O[C@@H]5O[C@H](CO)[C@@H](O)[C@H](O)[C@H]5O[C@@H]5O[C@H](CO)[C@@H](O)[C@H](O)[C@H]5O)CC[C@]4(C)C3C[C@H](O)[C@@H]12 (stereo partly specified)
RAW-Dual [2]; [7]
  NF-kB SEAP reporter activity: 0.936
RAW-Dual [2]; [8]
  NF-kB SEAP reporter activity: 1.05

## CC(C)=CC(C)C[C@](C)(O[C@@H]1O[C@H](CO)[C@@H](O)[C@H](O)[C@H]1O)[C@H]1CC[C@]2(C)C3CCC4C(C)(C)C(O[C@@H]5O[C@H](CO)[C@@H](O)[C@H](O)[C@H]5O[C@@H]5O[C@H](CO)[C@@H](O)[C@H](O)[C@H]5O)CC[C@]4(C)C3C[C@H](O)[C@@H]12 (stereo partly specified) (library stock concentration (final ~1000-fold dilution): 10 mM)
RAW-Dual [1]; agonist: LPS (TLR4) 0.1 ug/mL
  NF-kB SEAP reporter activity: 1.18
RAW-Dual [1]; [4]
  NF-kB SEAP reporter activity: 1.06
RAW-Dual [1]; [5]
  NF-kB SEAP reporter activity: 1.04
RAW-Dual [1]; [6]
  NF-kB SEAP reporter activity: 1.04
